Measured values: PMC3744423
No constants are given. Whether binding was seen depends on the method and setting. Binding seen in cells or lysates may run through a third protein. Some binding calls cover weakened binding; strength is not graded here. For some assays here: Tags and fused reporters may be left off the sequences shown. One block for each molecule: values may come before it.

Protein sequences, listed by entry. Tags and fused reporters are not part of them. Lines headed by an entry give the natural chain unless they say otherwise; changes in a name come on top.
UniProt P35222: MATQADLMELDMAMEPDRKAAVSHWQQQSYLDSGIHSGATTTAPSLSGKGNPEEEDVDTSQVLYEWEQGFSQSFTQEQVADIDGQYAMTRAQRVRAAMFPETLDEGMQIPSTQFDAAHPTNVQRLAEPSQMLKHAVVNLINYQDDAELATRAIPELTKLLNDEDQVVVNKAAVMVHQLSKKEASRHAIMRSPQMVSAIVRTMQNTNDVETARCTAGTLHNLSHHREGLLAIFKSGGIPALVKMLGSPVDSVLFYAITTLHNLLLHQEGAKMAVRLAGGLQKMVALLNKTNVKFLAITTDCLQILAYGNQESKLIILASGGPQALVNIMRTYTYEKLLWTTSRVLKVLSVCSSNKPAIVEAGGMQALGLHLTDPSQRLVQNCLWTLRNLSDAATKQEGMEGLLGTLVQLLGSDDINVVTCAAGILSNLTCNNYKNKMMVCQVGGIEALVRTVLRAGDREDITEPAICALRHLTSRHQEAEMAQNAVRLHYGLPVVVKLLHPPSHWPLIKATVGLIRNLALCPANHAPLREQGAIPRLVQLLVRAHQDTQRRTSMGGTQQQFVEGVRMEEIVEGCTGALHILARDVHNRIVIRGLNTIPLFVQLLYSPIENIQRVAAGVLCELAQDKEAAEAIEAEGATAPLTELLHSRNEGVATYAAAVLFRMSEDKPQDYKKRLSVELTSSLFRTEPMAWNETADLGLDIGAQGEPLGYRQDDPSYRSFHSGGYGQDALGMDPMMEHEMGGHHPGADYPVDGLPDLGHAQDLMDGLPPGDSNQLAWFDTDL
UniProt P36402: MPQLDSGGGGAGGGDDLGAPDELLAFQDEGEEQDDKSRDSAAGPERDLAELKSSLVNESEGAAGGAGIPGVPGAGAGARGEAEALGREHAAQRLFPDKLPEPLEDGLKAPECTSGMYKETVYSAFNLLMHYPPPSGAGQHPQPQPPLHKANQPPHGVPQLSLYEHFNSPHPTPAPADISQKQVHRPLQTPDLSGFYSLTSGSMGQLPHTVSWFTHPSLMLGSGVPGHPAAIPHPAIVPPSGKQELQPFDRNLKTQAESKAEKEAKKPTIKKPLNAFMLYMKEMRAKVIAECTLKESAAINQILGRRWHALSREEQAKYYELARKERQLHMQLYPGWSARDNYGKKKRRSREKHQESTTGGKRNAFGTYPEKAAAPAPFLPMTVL
UniProt Q9UJU2: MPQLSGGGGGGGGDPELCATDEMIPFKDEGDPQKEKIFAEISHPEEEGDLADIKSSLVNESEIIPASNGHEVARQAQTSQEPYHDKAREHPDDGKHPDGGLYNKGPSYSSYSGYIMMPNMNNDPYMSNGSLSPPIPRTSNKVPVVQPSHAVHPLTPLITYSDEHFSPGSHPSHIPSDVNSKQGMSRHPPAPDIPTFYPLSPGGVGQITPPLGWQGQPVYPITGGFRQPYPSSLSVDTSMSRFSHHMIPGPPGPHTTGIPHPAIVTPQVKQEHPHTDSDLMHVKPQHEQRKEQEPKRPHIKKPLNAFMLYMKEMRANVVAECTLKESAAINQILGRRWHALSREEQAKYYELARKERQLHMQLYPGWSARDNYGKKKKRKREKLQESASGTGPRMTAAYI
UniProt Q9NQB0: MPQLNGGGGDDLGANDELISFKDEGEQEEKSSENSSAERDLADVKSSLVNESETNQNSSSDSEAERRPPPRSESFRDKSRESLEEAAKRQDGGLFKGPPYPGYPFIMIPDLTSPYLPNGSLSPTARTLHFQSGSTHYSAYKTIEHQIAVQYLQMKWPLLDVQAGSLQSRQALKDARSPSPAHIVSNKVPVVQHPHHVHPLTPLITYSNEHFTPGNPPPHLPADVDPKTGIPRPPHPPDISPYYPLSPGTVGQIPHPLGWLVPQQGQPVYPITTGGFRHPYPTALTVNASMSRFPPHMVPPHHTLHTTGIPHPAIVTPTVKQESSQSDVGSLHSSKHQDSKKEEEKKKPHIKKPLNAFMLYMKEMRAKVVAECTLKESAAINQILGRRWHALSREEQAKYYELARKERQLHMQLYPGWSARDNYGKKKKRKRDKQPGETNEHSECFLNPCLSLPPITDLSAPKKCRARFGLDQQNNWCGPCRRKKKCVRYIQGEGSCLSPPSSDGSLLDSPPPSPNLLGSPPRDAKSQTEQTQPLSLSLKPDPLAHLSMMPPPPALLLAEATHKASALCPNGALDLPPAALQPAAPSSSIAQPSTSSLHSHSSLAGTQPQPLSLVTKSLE

Tests used:
[1] = molecular target: T1, Flag-tagged CREB5 (human) (UniProt Q02930); assay: co-IP; 293T cells co-transfected with Flag-tagged CREB5, HA-tagged TCF1 and HA-tagged TCF4; immunoprecipitation with anti-Flag antibody, immunoblot with anti-HA or anti-Flag
T1 sequence: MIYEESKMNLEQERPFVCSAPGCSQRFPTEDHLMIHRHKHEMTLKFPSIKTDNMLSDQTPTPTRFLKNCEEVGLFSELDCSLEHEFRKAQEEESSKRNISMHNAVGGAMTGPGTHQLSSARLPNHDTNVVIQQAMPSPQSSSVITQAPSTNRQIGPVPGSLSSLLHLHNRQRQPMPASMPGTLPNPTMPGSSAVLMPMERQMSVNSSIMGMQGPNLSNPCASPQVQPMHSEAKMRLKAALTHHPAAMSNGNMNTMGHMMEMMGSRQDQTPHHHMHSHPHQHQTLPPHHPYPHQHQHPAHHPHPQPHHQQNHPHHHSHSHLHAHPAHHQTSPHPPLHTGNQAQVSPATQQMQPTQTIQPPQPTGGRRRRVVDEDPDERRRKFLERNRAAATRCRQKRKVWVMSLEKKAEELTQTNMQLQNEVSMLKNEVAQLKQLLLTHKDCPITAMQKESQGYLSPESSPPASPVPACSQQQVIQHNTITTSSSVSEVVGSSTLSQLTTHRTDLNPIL

[2] = molecular target: myc-tagged β-catenin (UniProt P35222); assay: co-IP; 293T cells transfected with myc-tagged β-catenin and HA-tagged wild-type or mutant TCF1; immunoprecipitation with anti-myc antibody, immunoblot with anti-myc or anti-HA
[3] = molecular target: T1, Flag-tagged CREB5 (human); assay: co-IP; 293T cells, myc-tagged LEF1 and Flag-tagged CREB5; precipitating antibody not named in the legend
[4] = molecular target: HA-tagged TCF1 mutant (D21A; E29K) (human) (UniProt P36402); assay: co-IP; 293T cells co-transfected with HA-tagged TCF1 or TCF4 constructs and myc-tagged β-catenin; immunoprecipitation with anti-HA antibody, immunoblot with anti-myc or anti-HA; lysis buffer 50 mM Hepes pH 7.6, 150 mM NaCl, 5 mM EDTA, 1% Nonidet P-40
[5] = molecular target: Endogenous LEF1 (K562 and Ramos cells) (human (endogenous in K562 and Ramos)) (UniProt Q9UJU2); assay: co-IP; 2 mg of lysate from K562 or Ramos cells immunoprecipitated with 10 ug of anti-LEF1 or control antibody, immunoblot; endogenous proteins
[6] = molecular target: Flag-tagged TCF1 (human) (UniProt P36402); assay: co-IP; 293T cells with Flag-tagged TCF1, endogenous ATF2 detected; cells transduced with lentiviral shATF2 as negative control

Molecule: HA-tagged TCF1 (from UniProt P36402 1-384)
- binding [1]: binds

Molecule: HA-tagged TCF1 mutant (D21A; E29K) (from UniProt P36402 1-384)
- binding [2]: no binding

Molecule: myc-tagged β-catenin (from UniProt P35222 1-781)
- binding [4]: no binding

B1: Endogenous ATF7 (K562 and Ramos cells) (protein, UniProt P17544 1-483)
chain: MGDDRPFVCNAPGCGQRFTNEDHLAVHKHKHEMTLKFGPARTDSVIIADQTPTPTRFLKNCEEVGLFNELASSFEHEFKKAADEDEKKAAAGPLDMSLPSTPDIKIKEEEPVEVDSSPPDSPASSPCSPPLKEKEVTPKPVLISTPTPTIVRPGSLPLHLGYDPLHPTLPSPTSVITQAPPSNRQMGSPTGSLPLVMHLANGQTMPVLPGPPVQMPSVISLARPVSMVPNIPGIPGPPVNSSGSISPSGHPIPSEAKMRLKATLTHQVSSINGGCGMVVGTASTMVTARPEQSQILIQHPDAPSPAQPQVSPAQPTPSTGGRRRRTVDEDPDERRQRFLERNRAAASRCRQKRKLWVSSLEKKAEELTSQNIQLSNEVTLLRNEVAQLKQLLLAHKDCPVTALQKKTQGYLESPKESSEPTGSPAPVIQHSSATAPSNGLSVRSAAEAVATSVLTQMASQRTELSMPIQSHVIMTPQSQSAGR
- binding [5]: binds

Results, then the molecule that gave them:

- binding [1]: binds
Molecule: HA-tagged TCF4 (from UniProt Q9NQB0 1-619)

- binding [3]: binds
Molecule: myc-tagged LEF1 (from UniProt Q9UJU2 1-399)

- binding [6]: binds
B2: Endogenous ATF2 (293T cells) (protein, UniProt P15336 1-505)
chain: MKFKLHVNSARQYKDLWNMSDDKPFLCTAPGCGQRFTNEDHLAVHKHKHEMTLKFGPARNDSVIVADQTPTPTRFLKNCEEVGLFNELASPFENEFKKASEDDIKKMPLDLSPLATPIIRSKIEEPSVVETTHQDSPLPHPESTTSDEKEVPLAQTAQPTSAIVRPASLQVPNVLLTSSDSSVIIQQAVPSPTSSTVITQAPSSNRPIVPVPGPFPLLLHLPNGQTMPVAIPASITSSNVHVPAAVPLVRPVTMVPSVPGIPGPSSPQPVQSEAKMRLKAALTQQHPPVTNGDTVKGHGSGLVRTQSEESRPQSLQQPATSTTETPASPAHTTPQTQSTSGRRRRAANEDPDEKRRKFLERNRAAASRCRQKRKVWVQSLEKKAEDLSSLNGQLQSEVTLLRNEVAQLKQLLLAHKDCPVTAMQKKSGYHTADKDDSSEDISVPSSPHTEAIQHSSVSTSNGVSSTSKAEAVATSVLTQMADQSTEPALSQIVMAPSSQSQPSGS

- binding [5]: binds
B3: Endogenous ATF2 (K562 and Ramos cells) (protein, UniProt P15336 1-505)
chain: B2 chain
